Results reported in PubChem BioAssay (NCATS).
The shares of active, inactive and inconclusive entries below differ from those in the screen. For part of these data: Potencies beside an inconclusive call are fits to weak or partial responses and may not hold up. Activity calls are given as the source filed them. Calls come from the whole dose curve; as a rule, active = well fitted curve in the direction sought with a large enough effect; inconclusive = small, poorly fitted or top-dose-only effect, or another doubt; inactive = no such curve, though single readings can be large; an effect the other way counts as inactive or inconclusive.

Key:
[1] = Primary qHTS for inhibitors of nuclear receptor binding SET domain protein 2 (NSD2) in an isogenic RCH-ACV NSD2 p.E1099K mutant (9B) (AID 1645876); settings: RCH-ACV NSD2 E1099K (9B) viability, CellTiter-Glo, 72 h; series mostly up to 44.9 µM; note: nearly all actives have a fitted effect of over 70% in size; note: potency is the fitted concentration of half-maximal effect
[2] = Primary fluorescence-based thiol-reactive (MSTI) qHTS assay for identification of artifact compounds. (AID 1845221); settings: MSTI thiol-reactivity probe, 1 h; series mostly up to 53.8 µM; note: potency is the fitted concentration of half-maximal effect;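 note: thiol-reactive compounds lower the probe fluorescence signal; nearly all actives have a fitted effect of over 65% in size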
Method in brief: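 Thiol-reactive compounds detected by quenching of 4 uM MSTI fluorescence (525/598 nm) after 1 h room-temperature dark incubation in PBS pH 7.4, 2% DMSO. qHTS titration; percent inhibition Hill-fitted against Acetyl-MSTI/MSTI controls.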

[3] = molecular target: Phospholipid hydroperoxide glutathione peroxidase GPX4 (Homo sapiens) (UniProt P36969); test: Primary qHTS Assay for Inhibitors of Recombinant Selenoprotein Glutathione Peroxidase 4 (GPX4) (AID 1845192); settings: recombinant GPX4, GR-coupled NADPH fluorescence, 15 min; series mostly up to 50 µM; note: nearly all actives have a fitted effect of over 65% in size; note: potency is the fitted concentration of half-maximal effect
Sequence of UniProt P36969 (P36969 whole entry, looked up): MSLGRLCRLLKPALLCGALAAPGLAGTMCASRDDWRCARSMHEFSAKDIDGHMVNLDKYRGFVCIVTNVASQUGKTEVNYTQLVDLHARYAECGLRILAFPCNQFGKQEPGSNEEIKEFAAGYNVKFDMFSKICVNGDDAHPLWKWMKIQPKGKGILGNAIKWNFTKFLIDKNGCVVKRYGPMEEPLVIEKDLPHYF
Method in brief: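 GR-coupled readout: 100 nM GR, 1 mM GSH, 0.5 mM NADPH; NADPH fluorescence (ex 340/em 450 nm) read at t=0 and after 15 min RT. GPX4 200 nM, preincubated 30 min with compound; substrate 0.5 mM CHP.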

[4] = Primary qHTS for inhibitors of nuclear receptor binding SET domain protein 2 (NSD2) in an RCH-ACV wild type WT cells (2C) (AID 1645877); settings: RCH-ACV (leukaemia line) NSD2 WT (2C) viability, CellTiter-Glo, 72 h; series mostly up to 44.9 µM; note: nearly all actives have a fitted effect of over 70% in size; note: potency is the fitted concentration of half-maximal effect
[5] = molecular target: Glutathione peroxidase 1 (Homo sapiens) (UniProt P07203); test: Primary qHTS Assay for Inhibitors of Recombinant Selenoprotein Glutathione Peroxidase 1 (GPX1) (AID 1845191); settings: recombinant GPX1, GR-coupled NADPH fluorescence, 15 min; series mostly up to 48.8 µM; note: nearly all actives have a fitted effect of over 65% in size; note: potency is the fitted concentration of half-maximal effect
Sequence of UniProt P07203 (P07203 whole entry, looked up): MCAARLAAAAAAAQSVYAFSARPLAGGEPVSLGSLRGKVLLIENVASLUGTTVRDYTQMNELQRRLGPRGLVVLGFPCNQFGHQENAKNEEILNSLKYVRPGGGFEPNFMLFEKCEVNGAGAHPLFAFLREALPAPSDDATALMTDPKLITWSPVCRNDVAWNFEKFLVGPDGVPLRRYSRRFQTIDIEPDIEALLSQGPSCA
Method in brief: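 Recombinant GPX1 (10 nM final) was preincubated with compound for 30 min at room temperature, then reacted with 1 mM GSH, 0.5 mM CHP, 0.5 mM NADPH and 100 nM glutathione reductase; NADPH fluorescence (340/450 nm) was read at 0 and 15 min.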

[6] = molecular target: Luciferin 4-monooxygenase (Photinus pyralis) (UniProt P08659); test: Primary firefly luciferase (FLuc) qHTS assay for identification of artifact compounds. (AID 1845220); settings: purified firefly luciferase, luminescence, 5 min; series mostly up to 54.1 µM; note: nearly all actives have a fitted effect of over 60% in size
Method in brief: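 Reaction readout was CCD-imaged luminescence, taken 5 min after adding 10 nM purified firefly enzyme to compound-treated wells holding 10 uM luciferin and ATP in pH 7.6 buffer.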
Tags give direction and shape of the fitted curve.

Structure (SMILES): C[C@]12CC[C@@H](O[C@@H]3O[C@H](CO)[C@@H](O)[C@H](O)[C@H]3O)C[C@@]1(O)CCC1C2CC[C@]2(C)[C@@H](C3=CC(=O)OC3)CC[C@]12O (stereo partly drawn)
- Potency [1]: active: 0.0796 µM
- Potency [2]: inconclusive: 13 µM [inhibitor, single point]

Structure (SMILES): C[C@@H]1O[C@@H](OC2CCC3(C=O)C(CCC4C3CCC3(C)C(C5=CC(=O)OC5)C(O)CC43O)C2)[C@H](O)[C@H](O)[C@H]1O[C@@H]1O[C@H](CO)[C@@H](O)[C@H](O)[C@H]1O (stereo partly drawn)
- Potency [1]: active: 2.42 µM
- Potency [2]: inconclusive: 6.3 µM [inhibitor, partial curve]

Structure (SMILES): CC(=O)Nc1ccc(OC[C@](C)(O)C(=O)Nc2ccc([N+](=O)[O-])c(C(F)(F)F)c2)cc1
- Potency [1]: inconclusive: 29.5 µM [inhibitor, partial curve, poor fit]
- Potency [2]: inconclusive: 1.34 µM [inhibitor, full curve]

Structure (SMILES): C[C@@]1(C(=O)O)CC[C@]2(C)CC[C@]3(C)C4=CC(=O)c5cc(O)c(O)cc5[C@]4(C)CC[C@@]3(C)[C@@H]2C1
- Potency [1]: inactive
- Potency [2]: inconclusive: 1.16 µM [inhibitor, full curve]

Structure (SMILES): CC(C)(C)c1cc(C=C(C#N)C#N)cc(Br)c1O
- Potency [1]: inconclusive: 18.4 µM [inhibitor, single point]
- Potency [3]: inconclusive: 22.7 µM [inhibitor, single point]

Structure (SMILES): CN1CCN(C(=O)O[C@H]2c3nccnc3C(=O)N2c2ccc(Cl)cn2)CC1
- Potency [4]: inactive
- Potency [5]: inactive

Structure (SMILES): CC(=O)OC[C@]12C[C@H](OC(C)=O)C(C)=C[C@H]1O[C@@H]1[C@H](O)[C@@H](O)[C@@]2(C)[C@]12CO2
- Potency [4]: active: 0.0898 µM
- Potency [2]: inactive

Structure (SMILES): O=C(OC[C@H]1O[C@@H](Oc2ccc(O)cc2CO)[C@H](O)[C@@H](O)[C@@H]1O)c1ccccc1
- Potency [4]: inconclusive: 14.2 µM [inhibitor, single point]
- Potency [2]: active: 3.67 µM

Structure (SMILES): C[C@@H]1[C@H](O)[C@@H](C)/C=C/C=C/CC/C=C/C=C/C=C/C=C/[C@H](O[C@H]2O[C@@H](C)[C@H](O)[C@@H](N)[C@H]2O)C[C@@H]2O[C@](O)(C[C@@H](O)[C@H](O)CC[C@@H](O)C[C@@H](O)C[C@@H](O)CC(=O)O[C@H]1C)C[C@H](O)[C@H]2C(=O)O
- Potency [4]: inconclusive: 12.6 µM [inhibitor, partial curve]
- Potency [2]: inactive

Structure (SMILES): C=C(C)[C@@]12O[C@@H]1[C@@]1(C)C(=CC2=O)CC[C@@H](OC(C)=O)[C@@H]1C
- Potency [4]: active: 3.25 µM

Structure (SMILES): COC(=O)N1CCN(C(=O)Cc2ccc(Cl)c(Cl)c2)[C@@H](CN2CCCC2)C1
- Potency [4]: inactive
- Potency [3]: inactive

Structure (SMILES): CN1C(=O)c2ccccc2NC(=O)[C@]12O[C@@H]2c1ccccc1
- Potency [4]: inactive
- Potency [2]: inconclusive: 15 µM [inhibitor, partial curve]

Structure (SMILES): COC(=O)[C@]12CCCC(C)(C)C1CCc1cc(C(C)C)c(O)c(O)c12 (stereo partly drawn)
- Potency [4]: inconclusive: 20.1 µM [inhibitor, single point]
- Potency [2]: inconclusive: 20.7 µM [inhibitor, partial curve]

Structure (SMILES): O=C(NCCN1CCC2(CC1)C(=O)NCN2c1cccc(F)c1)c1ccc2ccccc2c1
- Potency [4]: active: 9.16 µM
- Potency [2]: inactive

Structure (SMILES): CC[C@H]1C2CC3[C@@H]4N(C)c5ccccc5[C@]45C[C@@H]([C@H]2[C@H]5O)N3[C@@H]1O
- Potency [4]: inactive
- Potency [2]: inconclusive: 7.36 µM [inhibitor, partial curve]

Structure (SMILES): CCOC(=O)CC(SP(=S)(OC)OC)C(=O)OCC (stereo not drawn)
- Potency [4]: inconclusive: 43.3 µM [inhibitor, single point]
- Potency [5]: inconclusive: 18 µM [inhibitor, partial curve]

Structure (SMILES): C=C(CO)C(=O)O[C@H]1C/C(C)=C/CC/C(CO)=C/[C@H]2OC(=O)C(=C)[C@H]12
- Potency [4]: inconclusive: 20.1 µM [inhibitor, single point]
- Potency [6]: inactive
